These results are taken from the supplement of paper PMC3334620.

In all, about 33,000 sequences were measured (“E-score (-0.5 to 0.5)”: median about -0.021, highest 2% from about 0.32 on). The list shows a part of the results.

The assay has as its target T1, Zap1 (UniProt P47043).
T1 sequence: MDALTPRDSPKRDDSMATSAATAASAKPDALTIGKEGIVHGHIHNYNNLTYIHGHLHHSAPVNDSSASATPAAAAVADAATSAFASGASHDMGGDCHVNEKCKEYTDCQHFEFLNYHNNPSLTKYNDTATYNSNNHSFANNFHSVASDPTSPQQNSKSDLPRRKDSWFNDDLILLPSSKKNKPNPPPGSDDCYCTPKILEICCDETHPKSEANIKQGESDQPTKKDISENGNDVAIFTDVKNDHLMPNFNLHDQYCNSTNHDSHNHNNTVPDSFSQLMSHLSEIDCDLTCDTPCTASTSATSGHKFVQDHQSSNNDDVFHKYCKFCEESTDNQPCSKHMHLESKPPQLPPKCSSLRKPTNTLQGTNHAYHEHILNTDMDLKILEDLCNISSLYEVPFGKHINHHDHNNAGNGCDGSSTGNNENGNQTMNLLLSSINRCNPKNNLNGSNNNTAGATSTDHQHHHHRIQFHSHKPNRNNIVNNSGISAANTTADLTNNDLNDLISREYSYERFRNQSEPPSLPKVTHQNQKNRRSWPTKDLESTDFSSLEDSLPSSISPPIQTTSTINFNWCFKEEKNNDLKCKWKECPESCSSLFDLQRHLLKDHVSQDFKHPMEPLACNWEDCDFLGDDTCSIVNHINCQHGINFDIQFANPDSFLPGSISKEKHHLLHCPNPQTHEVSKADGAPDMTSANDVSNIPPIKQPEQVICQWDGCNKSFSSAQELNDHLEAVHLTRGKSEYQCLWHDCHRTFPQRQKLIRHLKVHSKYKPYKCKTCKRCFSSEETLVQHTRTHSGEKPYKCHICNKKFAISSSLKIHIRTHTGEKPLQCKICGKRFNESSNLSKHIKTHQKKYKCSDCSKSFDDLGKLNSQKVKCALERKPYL
Put plainly: PBM E-score (8-mer binding enrichment) (E-score (-0.5 to 0.5)); higher = stronger / more preferred TF binding; most listed sequences are background and not binding sites. The following applies: protein concentration: 200 nM; construct: GST-full length. A digest of the protocol: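 Detection of bound protein used fluorescent anti-GST, with scans normalised by masliner. The proteins were GST-tagged yeast transcription factors applied at about 100-200 nM to universal all-10-mer Agilent arrays made double-stranded by primer extension. Each ungapped eight-base word, pooled with its reverse complement, was scored with an E-score from the Universal PBM Analysis Suite.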
Take CGCGAACA: the “PBM E-score” value turned out to be 0.188.
Take AATTGCTC: the “PBM E-score” value is -0.233.
The same measure for ACTGATCA: 0.151.
The figure for CCGCTTTA is -0.09; for GCCCGAAA it is 0.0437; for ATAGATTA it is 0.13.
Consider CATCGCAG, for which the “PBM E-score” value is -0.126.
The same measure for GCCGTCCA: 0.00749.
Take AGACGCTG: the “PBM E-score” value was -0.266.
The figure for GGGTGTTA is 0.0929; for GACGGAGC it is -0.214; for ACAATCAA it is -0.00207.
As for CCCTAGCG, the “PBM E-score” value was -0.0546.
AAATGATG: the “PBM E-score” value worked out at 0.0598.
Take AACGACAA: the “PBM E-score” value turned out to be 0.0795.
Consider ATCGGTGA, for which the “PBM E-score” value was found to be 0.0975.
The figure for CACATTCG is -0.0257.
The same measure for AGTCCACG: 0.0218.
The same measure for ATTACCGA: 0.18.
Turning to AGATTATC, the “PBM E-score” value worked out at 0.0616.
For the sequence AATGCTCA, the “PBM E-score” value is -0.145.
The figure for CTCCCTAA is -0.143; for AGCGAAGG it is -0.059; for CCGTTATC it is 0.0246.
The figure for CAGCTGTA is -0.203; for TATTCGAA it is 0.0178.
The same measure for CACCGGTA: 0.188.
As for CAACAGAC, the “PBM E-score” value was -0.0156.
Take TGACGGCA: the “PBM E-score” value is -0.224.
On to CTAGTCCC, for which the “PBM E-score” value is -0.248.
The figure for AATGTACT is 0.0783.
The figure for GTCAACAC is 0.0515.
The same measure for ACGGCTCG: -0.0135; for CAGAAAAC: 0.0871; for CACTGGTA: 0.114.
On to CCATCGTC, for which the “PBM E-score” value is -0.0439.
The figure for AATAGAAT is 0.0431; for GGTACACC it is 0.0906.
Regarding ATCACTAG, the “PBM E-score” value turned out to be 0.00086.
The figure for GTACGCAC is -0.0801.
For GAGTCCAA, the “PBM E-score” value was -0.0278.
Take CCAGAACG: the “PBM E-score” value was -0.0194.
Turning to ACCGGTCA, the “PBM E-score” value was determined as 0.24.
As for ATCGCCCG, the “PBM E-score” value is -0.251.
As to AGCAGGCT, the “PBM E-score” value was -0.24.
The figure for ACTTCTCT is -0.0321; for CTGACTTA it is 0.0223; for AATTGCCC it is -0.118.
Regarding TACCGTGA, the “PBM E-score” value is 0.247.
In the case of GAGACGGA, the “PBM E-score” value was -0.188.
As to CTTACATC, the “PBM E-score” value was -0.00556.
The figure for ACTGTCAA is -0.0221.
ATGGTGCA: the “PBM E-score” value is 0.0684.
The figure for ATAGAGCG is -0.17.
The same measure for CTTGAGTC: -0.0467; for GGCACCAA: 0.0722.
The figure for ATTCGGAC is 0.0335; for GATGTAGA it is -0.0865; for AACGCAAC it is 0.235.
Regarding ACTAATAT, the “PBM E-score” value came out at 0.135.
For the sequence ATCGGTCG, the “PBM E-score” value amounted to 0.0271.
The figure for GGTCTACA is 0.00432.
As for AAAGCTCG, the “PBM E-score” value is -0.121.
The same measure for GTAAATGA: 0.0351; for AATTACAT: -0.00353; for CGGGACAA: -0.0695.
The figure for CAGATGGC is -0.149.
In the case of CATATGGC, the “PBM E-score” value is -0.066.
Regarding ACATGAAA, the “PBM E-score” value was -0.0064.
The same measure for ATTTGAGG: 0.0474.
Consider GTTGGTGA, for which the “PBM E-score” value was found to be 0.148.
Turning to GGTCACTA, the “PBM E-score” value was 0.25.
With CAGGGAAC, the “PBM E-score” value came out at 0.144.
The figure for AAGAACCA is 0.216; for AATACGCT it is -0.155.
The same measure for AATTCAGT: -0.198.
For AAATGTGC, the “PBM E-score” value stood at 0.108.
The same measure for TGCGACCA: 0.171; for GGCTCCGA: -0.112; for CCGTGTGA: 0.00858.
The figure for CGTGCAGA is 0.0489; for TCTCGGAA it is 0.0401; for CATTCGAG it is 0.013.
In the case of AATTAAGG, the “PBM E-score” value amounted to 0.213.
The same measure for AGCCAAAG: -0.105; for GACTCATC: -0.292.
